The campaign covered roughly 310,000 compounds. About 14,000 (4.5%) showed an effect of 50% or more. The effect is printed as a negative number. The list shows a part of the results.
Each compound was assayed against human ether-à-go-go-related gene (hERG) potassium channel (human, UniProt Q12809) (assay: primary screen, population patch clamp on CHO cells stably expressing hERG).
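Further: peak tail current of the secondary pulse compared with the same well before compound.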

human ether-à-go-go-related gene (hERG) potassium channel, sequence (Q12809 whole entry, looked up): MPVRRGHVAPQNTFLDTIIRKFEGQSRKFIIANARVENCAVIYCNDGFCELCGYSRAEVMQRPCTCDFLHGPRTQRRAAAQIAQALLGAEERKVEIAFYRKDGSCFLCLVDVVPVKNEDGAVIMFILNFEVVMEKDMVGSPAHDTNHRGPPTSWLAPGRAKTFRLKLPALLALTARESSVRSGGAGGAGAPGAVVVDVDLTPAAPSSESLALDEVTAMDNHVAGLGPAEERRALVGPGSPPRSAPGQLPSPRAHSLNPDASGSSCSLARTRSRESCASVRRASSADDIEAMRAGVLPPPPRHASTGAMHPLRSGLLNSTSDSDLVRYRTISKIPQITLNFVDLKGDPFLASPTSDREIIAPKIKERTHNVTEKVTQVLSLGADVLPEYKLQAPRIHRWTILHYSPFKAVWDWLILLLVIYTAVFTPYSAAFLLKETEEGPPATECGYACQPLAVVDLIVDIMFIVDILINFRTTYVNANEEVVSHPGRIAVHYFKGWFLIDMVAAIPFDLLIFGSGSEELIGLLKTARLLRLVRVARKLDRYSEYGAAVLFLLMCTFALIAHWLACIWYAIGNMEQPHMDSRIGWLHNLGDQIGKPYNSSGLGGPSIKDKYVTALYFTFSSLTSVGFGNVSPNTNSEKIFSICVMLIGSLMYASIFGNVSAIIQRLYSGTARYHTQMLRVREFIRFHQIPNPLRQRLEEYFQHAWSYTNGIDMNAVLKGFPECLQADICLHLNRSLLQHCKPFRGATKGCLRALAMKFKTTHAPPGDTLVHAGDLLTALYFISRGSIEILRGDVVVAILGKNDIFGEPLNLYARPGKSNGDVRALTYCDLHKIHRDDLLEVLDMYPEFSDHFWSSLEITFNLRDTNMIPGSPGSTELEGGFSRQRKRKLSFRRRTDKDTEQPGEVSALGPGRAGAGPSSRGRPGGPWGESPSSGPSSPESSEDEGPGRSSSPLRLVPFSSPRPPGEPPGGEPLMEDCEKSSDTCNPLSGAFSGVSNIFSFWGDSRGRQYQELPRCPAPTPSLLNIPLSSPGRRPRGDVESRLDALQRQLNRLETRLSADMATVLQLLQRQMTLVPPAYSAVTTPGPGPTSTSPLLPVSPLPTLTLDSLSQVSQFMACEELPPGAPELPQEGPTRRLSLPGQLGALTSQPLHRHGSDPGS

SMILES | hERG current change (%, negative = inhibition) at 10uM
COc1ccc(NS(=O)(=O)c2cccc(-c3n[nH]c(=S)n3Cc3ccccc3)c2)cc1 | -14.2%
C/C(=N\OC(=O)c1ccc(OC(C)C)cc1)c1ccc(C)c(C)c1 | -5.4%
CC(=O)NCCc1nc2cc(NC(=O)c3ccccc3)ccc2n1C | -25.6%
O=C(N/N=C/c1cc(Br)cc([N+](=O)[O-])c1O)c1ccc(NC(=O)c2ccc(F)cc2)cc1 | 16.2%
COc1cccc(N2CCN(c3ncccn3)CC2)c1 | 15.3%
O=S(=O)(Cc1ccccc1)N1CCc2ccccc21 | -4.64%
Cc1ccc(NC(=O)OCC(F)(F)C(F)F)cc1NC(=O)OCC(F)(F)C(F)F | -22.9%
CCCCOc1ccc(NC(=O)Nc2nnc(C)s2)cc1 | 18%
O=C1C2C3C=CC(C3)C2C(=O)N1c1cccc2ccccc12 (stereo not shown) | 18.7%
Cc1[nH]c2ccccc2c1C(=O)COC(=O)Cn1cnc2ccccc21 | -25%
O=C(CN1CCN(Cc2ccc(F)cc2)C1=O)NCc1cccs1 | -1.62%
Cc1ccc2c(c1)N(CC(=O)NCCC1=CCCCC1)C(=O)c1cccnc1O2 | -27.8%
Cc1ccc(NC(=O)CCC(C(=O)O)N2C(=O)c3ccccc3C2=O)cc1 (stereo not shown) | -2.68%
Nc1ncnc2nc(SCC(=O)Nc3ccccc3F)[nH]c12 | 14.8%
CCc1ccc(N/C(=N/c2nc(C)cc(C)n2)NC(C)=O)cc1 | -67%
Cc1cc(=O)[nH]c(SCc2nnnn2-c2ccc(Cl)cc2)n1 | 18.2%
CC(=O)Nc1ccc(Cl)cc1C1COC(=O)C1=N (stereo not shown) | -1.82%
Cc1cccc(Nc2nc(N)nc(CN3CCN(C)CC3)n2)c1 | -39.2%
CC1CN(c2cc(=O)n(Cc3ccc(F)cc3)c(=O)[nH]2)CC(C)O1 (stereo not shown) | -9.19%
CCOC(=O)c1cccc(NC(=O)CN(C)S(=O)(=O)c2cnc[nH]2)c1 | 9%
COc1ccc(-c2noc(CN(C)S(=O)(=O)c3ccc(C)cc3)n2)cc1 | -14.2%
C[C@H](NC(=O)c1ccccc1Cl)C(=O)OCC(=O)N1CCN(c2ccccc2)CC1 | -9.59%

SMILES | hERG current change (%, negative = inhibition) at 10uM
Cc1nnc(NC(=O)CSc2ccccc2N)s1 | 7.93%
CC(Nc1nc(-c2ccccc2F)nc2ccccc12)c1ccccc1 (stereo not shown) | -3.87%
C=CCNC(=O)CSc1nc2sc3c(c2c(=O)n1CCCOC)CCC3 | -28.6%
Cc1ccc(C(=O)COC(=O)CCN2C(=O)C3C4CC(C(Br)C4Br)C3C2=O)cc1 (stereo not shown) | 4.6%
CCc1ccc(C(C)NC(=O)c2ncn[nH]2)cc1 (stereo not shown) | -5.51%
CCOc1ccc(Cn2c(O)cc(=O)[nH]c2=O)cc1 | 18.4%
CC1CCCCC1NC(=O)CN(C)S(=O)(=O)c1cccc2nsnc12 (stereo not shown) | 14.3%
CCOC(=O)CNC(=O)C12CC3CC(C1)CC(c1ccc(C)cc1)(C3)C2 | -6.27%
C=CCN1C(=O)C(C)(C)N(C(=O)c2cccc([N+](=O)[O-])c2)c2ccccc21 | -16.4%
CC(C)c1nc(NCCN2CCOCC2)c(C#N)c2c1COC(C)(C)C2 | 5.91%
CCOC(=O)c1ccc(NC(=O)N2CC3CC(C2)c2cccc(=O)n2C3)cc1 (stereo not shown) | 11.5%
COc1cccc(C(=O)Nc2ccc3c(cc2=O)[C@@H](NC(C)=O)CCc2cc(OC)c(OC)c(OC)c2-3)c1 | 8.25%
O=C(c1ccccc1)c1cccc(NC(=O)C2CC2)c1 | 0.476%
O=c1[nH]cnc2c1ncn2[C@@H]1C[C@@H](O)[C@H](CO)O1 | 18.3%
Cn1nc(C(=O)NC2CCC(O)CC2)c2ccccc2c1=O (stereo not shown) | 11.1%
CCOC(=O)/C(C#N)=C1/C=CN(C)C=N1 | 13.8%
COC(=O)CCC(=O)OC1(C)C(=O)C=C2C=C(C3CC3)N(Cc3ccc(OC)cc3)C=C2C1=O (stereo not shown) | -0.151%
CCOc1ccc(S(=O)(=O)NCCC(=O)N2CCN(c3ccccc3O)CC2)cc1 | -21.6%
CSc1ccc(CCNC(=O)CS(=O)(=O)Cc2nc(-c3ccccc3F)oc2C)cc1 | 9.68%
COc1ccc(-n2nc(C(=O)NCC(=O)N3CCN(c4ccccc4OC)CC3)c3ccccc3c2=O)c(OC)c1 | -18.4%
O=C(COc1ccccc1)Nc1nnc(-c2ccco2)o1 | 22.2%
COc1ccc(C(C(=O)NCC2CCCO2)N(Cc2ccccc2)C(=O)CNC(=O)c2ccco2)cc1OC (stereo not shown) | 13.4%

SMILES | hERG current change (%, negative = inhibition) at 10uM
COc1c(N)c2ccccc2[nH]c1=O | -1.19%
CC(C)(C)c1cccc(C2(O)C(=O)c3ccccc3C2=O)c1O | 13%
CCOC(=O)N1CCN(C(=O)c2ccc3c(=O)n(CCc4ccccc4)c(=O)[nH]c3c2)CC1 | 9.62%
Cc1ccc(CNc2c(C=O)c(=O)[nH]c3ccccc23)cc1 | 14.9%
COc1ccc(CNC(=O)CN(C(=O)c2snc(C(N)=O)c2N)c2ccc(OC)c(OC)c2)cc1 | -3.19%
CCC(c1nnnn1CC1CCCO1)N(CCCO)Cc1cc2cccc(C)c2[nH]c1=O (stereo not shown) | -4.22%
CCOc1ccccc1CN1CCNC(=O)C1CC(=O)N(C)Cc1cnccn1 (stereo not shown) | 19.2%
COc1ccc(NCC(=O)N/N=C/C=C\c2ccccc2)cc1 | -5.53%
COc1ccc(C(=O)C2CCCN(C(=O)c3ccnn3C)C2)cc1OC (stereo not shown) | 12.2%
O=C(/C=C/c1ccc(Cl)cc1)N1CCOCC1 | 9.65%
Cc1cc(C(=O)N/N=C/c2c3ccccc3cc3ccccc23)n[nH]1 | 9.44%
Cc1ccc2nc(Br)c3c(c2c1)OC(CBr)C3 (stereo not shown) | -33.6%
Cc1cc(C)c(S(=O)(=O)NCC2CCC(C(=O)NCCCN3CCC(C)CC3)CC2)c(C)c1 (stereo not shown) | -77.2%
Nc1nnc(SCC(=O)OCC(=O)Nc2ccc(Br)cc2)s1 | 5.55%
CCOC(=O)CSc1nc(C)cc(C)n1 | 7.29%
COc1ccc(-c2noc3c2-c2nc(-c4ccccc4C)sc2CC3)cc1 | 16.7%
CCCOC(=O)c1ccc(Cl)c(NC(=O)c2cccnc2)c1 | -42.3%
COc1ccc(C2CC(=O)c3ccccc3O2)cc1 (stereo not shown) | -0.451%
Cc1snc(S(=O)(=O)Cc2c(Cl)cccc2Cl)c1C#N | -11.5%
COc1ccc(S(=O)(=O)Nc2cccc(F)c2C)cc1C(=O)N1CCOCC1 | 6.33%
O=C(c1nn(Cc2ccccc2)c(=O)c2ccccc12)N1CCN(c2ccccn2)CC1 | -66.3%
COc1ccccc1NC(=O)C(C)OC(=O)CC1CCCC1 (stereo not shown) | 0.474%

SMILES | hERG current change (%, negative = inhibition) at 10uM
CN(C)S(=O)(=O)c1ccc(C(=O)N2CCN=C2SCc2ccccc2)cc1 | 20.9%
CCCCNC(=S)Nc1ccccc1Cc1ccccc1 | 10.7%
C=CCNC(=O)/C(=C\c1cccc([N+](=O)[O-])c1)NC(=O)c1ccccc1 | -53.4%
COc1cc(CNc2ccc3[nH]c(=O)[nH]c3c2)ccc1OCc1ccccc1Cl | 26.4%
Fc1ccc(NC(=S)Nc2ccccc2OC(F)F)cc1Cl | 9.18%
Cc1cc(C)n(CCCNCC(O)c2ccccc2)n1.O=C(O)C(=O)O (stereo not shown) | -0.223%
CCOn1c(SCC)nc2ccccc2c1=O | -15.7%
CCOc1ccc(S(=O)(=O)N2CCN(C(=O)c3cccn3C)CC2)cc1 | -29.5%
CC1CN(C(=O)COc2ccc3c(-c4ccccc4)cc(=O)oc3c2)CC(C)O1 (stereo not shown) | -12.8%
COc1ccc2c(c1)O[C@H](c1ccc3c(c1)OCO3)[C@@H](OC(=O)Nc1cc(OC)c(OC)c(OC)c1)C2=O | 2.73%
Oc1ccc(-c2sc(Nc3ccccc3)n[n+]2-c2ccc(F)cc2)cc1.[Cl-] | -1.63%
CCCCN1C(=O)c2ccc(C(=O)Nc3c(N)n(CCCC)c(=O)n(C)c3=O)cc2C1=O | -51.9%
CC1CCN(C2(O)C(=O)Nc3ccc(Cl)cc32)CC1 (stereo not shown) | 4.26%
COC(=O)C1=C(N)N(c2ccccc2F)C2=C(C(=O)CC(C)(C)C2)C1c1ccc(OC)c(OC)c1 (stereo not shown) | -36.2%
CCOC(=O)c1sc2ncnc(N3CCN(C)CC3)c2c1C | -24.3%
Cc1cccc2cc(CN(Cc3ccco3)C(=O)c3ccncc3)c(=O)[nH]c12 | -31.6%
O=C(O)CSc1nnc(COc2cccc3cccnc23)n1-c1cccc(C(F)(F)F)c1 | 26.5%
Cc1ccc(OCC(=O)Nc2nnn(C)n2)c(C)c1 | 6.25%
Cc1ccc2c(C(=O)CN3CCCC3)c(C)[nH]c2c1 | -6.89%
C=CCn1cccc(C(=O)Nc2ccc(Cl)cc2)c1=O | -3.33%
CCOC(=O)c1cc(CC)sc1NC(=O)C1CC1 | -7.16%
COc1ccccc1-c1nc(C#N)c(N2CCN(Cc3ccccc3)CC2)o1 | -10.3%
